B1: CPEB3 Ribozyme (parent)
chain: UAACAGGGGGCCACAGCAGAAGCGUUCACGUCGCAGCCCCUGUCAGAUUCUGGUGAAUCUGCGAAUUCUGCUGUAUAUCUC

Read counts are not given, so values of variants with three or more changes are uncertain.

Variants of B1 are the subject of this data set. As to the kind of experiment: self-cleavage, relative activity (ratio to wild type); higher = more cleavage; in vitro, sequencing. Summed up:
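CPEB3 self-cleaving ribozyme mutant libraries were made by rounds of error-prone PCR, barcoded, and transcribed in vitro with T7 RNA polymerase for 5 hours at 37°C. Cleavage occurred during transcription and a 15 min DNase I step before EDTA stop. RNAs were reverse transcribed with template switching and Illumina-sequenced, with DNA sequencing mapping barcodes to variants. Relative activity is the variant's cleaved/total read fraction divided by wild type's (minimum 5 reads), averaged across three batches.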
For the variant UAACAGGGGAACACAGCAGAAGCGUUCACGUCGCAGCCCCAGUCAGAUUCUGGUGAAUCUGCGAAUUCAGCUGUAUAUCUC, the self-cleavage was 0.15.

As to UAACAGGGGACAGCAGCAGAAGCGUACACGUCGCAGCCCCUGUCGGAUUCGGGUGAAUCUGCGAAUUCUGCUGUAUACCUC, the self-cleavage was 0.04.

With UAACAGGGGACCACAGCAGAAGCGUUCACGUCGCAGCCUCUGUCAGGUUCCGGUGAAUCUGCGAAUUCUGCUGUAUAUCUC, the self-cleavage was 0.05.

Consider UAACAGGGGACCACAGCAGGAGCGUUCACGUCGCAGCCCCUGCCAGAAUCUGGUGAAUCUGCGAAUUCUGCUGUAUUUCUC, for which the self-cleavage came out at 0.24.

As to UAACAGGGGACCAUAGCAGUAGCGUUCACGUCGCAGCCCCAGUCAGAUUCUGGUGAAUCUGCGAAUUCUGCUGUACAUCUC, the self-cleavage amounted to 0.28.

As for UAACAGGGGACCACAGGAGAAGCGUUCACGUCGCAGCCCUUGUCAGAUUCUGGUGAAUCUGCGAAUUCUGCUGUAUUUCUC, the self-cleavage was 0.35.

Take UAACAGGGGACCACAGCAGAAGCGCUCACGUCGCAGCCCCUGUCAGAUUCUGGUGAAUCUGCGAAUUCUGCUUUGUAUCCC: the self-cleavage worked out at 0.2.

Regarding UAACAGGGGACCACAGCAGAAGCGCUCACGUCGCAGCCCCUGUCAGAUUCUGGUGGAUCUGCGAAUUCUGCUGUAUACCUC, the self-cleavage was found to be 0.06.

Consider UAACAGGGGACCACAGCAGAAGCGUUCACGACGCAGCUCCUGUCGGAUUCUGGUGAAUCUGCGAAUUCCGCUGUAUUCCUC, for which the self-cleavage was determined as 0.03.

Consider UAACAGGGGACCACAGCAGAAGCGUUCACGUCGCAGCCCCUGUCAGAUACUGGUGAAUCUGCGAGUUCUGCUGUAUAUUUC, for which the self-cleavage worked out at 0.05.

Turning to UAACAGGGGACCACAGCAGAAGCGUUCGCGUCGCAGCCCCCGUCAGAUUCUGGUGAAUCUGCGAAUUCUGCUGUAUAUCUC, the self-cleavage stood at 0.2.

As to UAACAGGGGACCACAGCAGAAGCGUUCACGUCGCAGCCCCAGUCAGAUUCUGGCGAAUCUGCGAAUUCUGCUGUAUAUCCC, the self-cleavage amounted to 0.17.

As for UAACAGGGGACCACAGCAGAAGCGUCCACGUCGCGGCCCCUGUCGGAUUCUGGUGAAUCUGCGAAUUCUGCUGCACAUCUC, the self-cleavage came to 0.1.

For the variant UAACAGGGGACCACAGCAGAAGCGUUCCCGUCGCUGCCCCCGUCAGGCUCUGGUGAAUCUGCGAAUUCAGCUGUAUAUCUC, the self-cleavage amounted to 0.17.

On to UAACAGGGGACCACAGCAGAAGCGUUCACGUCGCAGCCCCGGUCAGAUCCUGGUGAAUCUGCGAAUUCUGCUGUAUAUCUC, for which the self-cleavage turned out to be 0.09.

As to UAACAGGGGACCACAGCAGAAGCGUACGCGUCGCAGCCCCUGUCAGAUCCUGGUGAAUCUGCGAAUUCCGCUUUAUAUCUC, the self-cleavage came to 0.03.

In the case of UAACAGGGGACCACAGCAGAAGCGUUCACGUCGCAGCCCCUGUCAGAUUCUGGUGAAUCUGCGAGUUCUGCUGUAUACCUC, the self-cleavage was determined as 0.11.

As for UAACAGGGGACCACAGCAGAAGCGUUCACGUCGCAGCCCCCGUCAGAUUCUGGUGAAUCUGCUAAUUCUGCUGUAUAUCUC, the self-cleavage turned out to be 0.49.

Take UAACAGGGGACCACAGCAGAAGCGUUCACGUCGCAGCCCCUGUCAGAUUCUGGUGAAUCUGCGGAUUCUGCUGUAUUUCUC: the self-cleavage was found to be 0.06.

As to UAACAGGGGACCACAGCAGAAGCGUUCACGUCGCAGCCCCUGCCAGACUCUGGUGAAUCUGCGAAUUCUGCUGUAUAUCUC, the self-cleavage amounted to 0.07.

On to UAACAGGGGACCACAGCAGAAGCGUUCACGUAGCAGCCCCUGGCAGAUUCUGGUGAAUCUGCGAAUUCUGCUGUAUAUCUC, for which the self-cleavage came out at 0.22.

In the case of UAACAGGGGACCACAGCAGAAGCGUUCACGUCGCAGCCCCUGUCAGAUUCUGGUGGAUCUGCGAAUCCUGCUGUAUAUCUC, the self-cleavage amounted to 0.14.

Regarding UAACAGGGGACCACAGCAGUAGCGUUCACGUCGCAGCCCCUGCCAGAUUCACGUGAAUCUGCGGAUUCUGCUGUAUAUCUC, the self-cleavage turned out to be 0.05.

In the case of UAACAGGGGACCACAGCAGAAGUGUCCACGUCGCAGCCCCUGUCAGUUUCUGGUGAAUCUGCGAAUUCUGCCGUAUAUCUC, the self-cleavage amounted to 0.09.

Turning to UAACAGGGGACCACAGCAGAAGCGUUCACGUCGCAGCCCCAGUCAGACUCUGGUGAAUCUGCGUGUUCUGCUAUAUAUCUC, the self-cleavage came to 0.03.

As for UAACAGGGGACCACAGCAGAAGCGUUCACGUCGCAGCCCCUGCCAGAUUCUGGCGUAUCUGCGGAUUCUGCUGUAUGUCUC, the self-cleavage is 0.02.

UAACAGGGGACCACAGCAGAAGCGUUCACGUCGCAGCCCCUGACAGAUUCUGGUGAAUCUGCGAAUUCUGCUGUACAUCUC: the self-cleavage was found to be 0.29.

Take UAACAGGGGACCACAGCAGACGCGUUCACGUCGCAGUCCUUGUCUGAUUCUGGUGAAUCCGCGAAUUCUGCUGUAUAUCUC: the self-cleavage came to 0.02.

In the case of UAACAGGGGACCACAGCAGAAGCGUUCACGUCGCAGCCCCUGCCAGAUUCUGGUGAAUCUGUGAAUUCUGCUGAAUAUCUC, the self-cleavage is 0.22.

With UAACAGGGGACCACAGCAGAGGCGUUCACGUCGCAGCCCCAGUCAGAUUCUGGUGAAUCUGCGAAUUCUGCUGUAUAUCUC, the self-cleavage was found to be 0.19.

UAACAGGGGACCACAGCAGGAGCGUUCACGUCGCAGCCCCUGUCAGAUUCUGGUGAAUCUGCGAAUUCUGCUGUAUACCUC: the self-cleavage turned out to be 0.16.

As to UAACAGGGGACCACAGCAGAAGCGUUCACGUCGCAGUCCCCGUCAGAUUCUUGUGAAUCUGCGAAUUCUGCUGUAUAUCUC, the self-cleavage was 0.58.

As to UAACAGGGGACCACAGCAGAAGCGCUCACGUCUCAGCCCCUGUCAGAUUCUGGUGAAUCUGCGAUCUCUGCUGUAUAUCUC, the self-cleavage stood at 0.05.

In the case of UAACAGGGGACCACAGCAGAAGCGUUCACGUCGCAGCCCCUGGCAGAUCCUGGUGAAUCUGCGAAUUCUGCUGUAUGUCUC, the self-cleavage came to 0.11.

For the origin of these results see the RNAGym collection of RNA variant scans (doi:10.1093/nar/gkz1192).
